Source: patent publication US12569503B2, “Methods and compositions for substituted axially-chiral cannabinol analogs” (University of Florida Research Foundation, Inc., priority 2019, dated 2026)

Legend:
C57bl/6j mice = assay: Reduction of body temperature (hypothermia); details: Table 1; decreasing body temperature, separate cohort of C57bl/6j mice
[1] = tested on: mice with chronic constriction injury (CCI) of the sciatic nerve; assay: Reversal of CCI-induced thermal hyperalgesia; format: in vivo
[2] = tested on: C57bl/6j mice with chronic constriction injury of the sciatic nerve (CCI); assay: Reversal of CCI-induced mechanical allodynia (von Frey assay)

Row | Compound | Body Temp. ED50 ((95% CL) (C57bl/6j mice) [mg/kg] | Reversal of CCI-induced thermal hyperalgesia (in words) [1] | Allodynia ED50 ((95% CL) ([2]; Table 1, reversing mechanical allodynia, CCI mice, 7 days post-surgery) [mg/kg] | ED50 ([2]; Mus musculus, 168 h, read-out: Allodynia ED50 ((95% CL) mg/kg)) [mg/kg]
1 | 10-methyl-CBN [ax-CBN] | 318.4 | dose-relatedly reversed CCI-induced thermal hyperalgesia | 170.0 | –
2 | CCCCCc1cc(O)c2c(c1)OC(C)(C)[C@@H]1CCC(C)=C[C@@H]21 [THC, (−)-trans-Δ^9-tetrahydrocannabinol] | – | dose-relatedly reversed CCI-induced thermal hyperalgesia | – | 29.9
